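Step 1: Grow cells in 96-well plates. Step 2: Expose to compound for 48 hours at 5 concentrations. Step 3: Interpolate endpoints linearly; if unreached, use highest concentration. GI50: concentration for 50% inhibition of growth. TGI denotes the concentration required for complete inhibition of growth.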
What follows are molecules tested on NCI-H322M lung (assay: DTP human tumour cell line panel, 48 h).

`C/C(=N\N=C(N)N)C(CN1CCOCC1)C(c1ccccc1)c1c(O)c2ccccc2oc1=O` (stereo not drawn) and `O=c1oc2ccccc2c(O)c1C(c1ccc(OCc2ccccc2)cc1)c1c(O)c2ccccc2oc1=O` cannot be ordered by TGI: > 100 µM for the first, > 100 µM for the second.

First: OC(CCN1CCN(CCOC(c2ccccc2)c2ccccc2)CC1)c1ccccc1 (stereo not drawn)
Second: CC1C(c2ccccc2)N(C)C(c2ccccc2)C(C)C1(O)c1ccccc1 (stereo not drawn)
The TGI of the first is lower: 78.2 µM for the first, > 100 µM for the second.

First: N=C1C=CC(=C(c2ccc(N)cc2)c2ccc(N)cc2)C=C1
Second: Cc1cc(N(CCC#N)S(=O)(=O)c2ccccc2)ccc1C=Nc1ccc(C(=O)O)cc1
The TGI of the first is lower: 28.5 µM for the first, > 54.5 µM for the second.

Going from `CCSC12OC3(CCCCCN3C1=O)C1C(=O)N(c3ccccc3)C(=O)C12` (stereo not drawn) to `CC12CCC(C1)C(C)(C)C2OC(=O)c1ccccc1N` (stereo not drawn), the TGI falls from > 100 µM to 26.7 µM.

Compared with `CCn1c(CCCc2nc3c([nH]2)c(=O)n(C)c(=O)n3C)nc2c1c(=O)n(C)c(=O)n2C`, `Cc1cc2nc3c(C#N)c(C)c(CCCl)c(Cl)n3c2cc1C` is lower in TGI: > 100 µM for the first, 18.1 µM for the second.

`COc1ccc(C(=O)/C=C/c2ccc(OCc3cccc(C(F)(F)F)c3)c(OC)c2)cc1OC` and `COc1cc2nc(-c3cccs3)nc(Nc3ccccc3C(=O)NN)c2cc1OC` cannot be ordered by TGI: > 1000 µM for the first, > 100 µM for the second.

`C=C1C(=O)O[C@@H]2/C=C(/C)[C@@H](OC(C)=O)C[C@@H](O)/C(C)=C\[C@@H](OC(=O)[C@]3(C)O[C@@H]3C)[C@@H]12` and `CC1(C)OCC2OC(n3cnc4c(N)nc(Cl)nc43)C(OS(C)(=O)=O)C2O1` (stereo not drawn) cannot be ordered by TGI: > 100 µM for the first, > 100 µM for the second.

First: Cc1ccc2ccccc2c1CSc1nc(N)nc2c1ncn2CC(C)C
Second: O=C(Nc1ccc(Br)c2ccccc12)c1ccc2ccccc2c1O
The TGI of the first is higher: > 100 µM for the first, 21.1 µM for the second.

`O=C(Nc1cccc([N+](=O)[O-])c1)c1cccc(C(=O)Nc2cccc([N+](=O)[O-])c2)c1` and `CCOc1ccc2c(c1)C(/C(C(Cl)=C(Cl)Cl)=[N+](/[O-])OC(=O)c1ccccc1)=N2` cannot be ordered by TGI: > 100 µM for the first, > 100 µM for the second.

`C[C@@H]1CC[C@@H]2[C@@H]1[C@H](OC(=O)/C=C/C1CCCCC1)[C@]1(C3CCCCC3)C[C@@H](OC(=O)CO)[C@@]2(C)O1` and `COC(=O)/C1=C/C=C\C[C@@]2(C)CC(c3ccoc3)OC(=O)[C@@H]2CC[C@H]1C` (stereo partly drawn) cannot be ordered by TGI: 29 µM for the first, > 25 µM for the second.

First: COc1cc2c(cc1OCC(=O)Nc1ccc(Cl)cc1C(=O)c1ccccc1Cl)N=CC1CCCN1C2=O (stereo not drawn)
Second: CCOc1ccccc1N=NC1C(=O)N(C(=O)CC(=O)Nc2ccccc2C)N=C1C (stereo not drawn)
The TGI of the first is lower: 26 µM for the first, > 100 µM for the second.

`COc1cc(/C=C2\[C@@H]3NC(Cc4c(OC)c(C)c(OC)c(OC)c43)C(=O)N2Cc2ccccc2)c(OC)c(C)c1OC` and `COc1cc(C(c2ccccc2)N2C(=O)CC[C@H]2C(=O)O)cc(OC)c1OC` (stereo partly drawn) cannot be ordered by TGI: > 100 µM for the first, > 100 µM for the second.

Going from `CCC(=O)OCOc1ccc(/C=C2\CCC(CN(C)C)C2=O)cc1` (stereo not drawn) to `C=C(C)C1(Sc2ccc(OC)cc2)CC1`, the TGI rises from 30.5 µM to > 100 µM.

`N#Cc1sc2c(c1OC(=O)c1ccco1)c(=O)n(-c1ccccc1)c(=S)n2-c1ccccc1` and `O=C(NC1CCC[C@H]1OC(=O)c1ccccc1)c1ccccc1` (stereo partly drawn) cannot be ordered by TGI: > 100 µM for the first, > 100 µM for the second.

Compared with `Oc1ccc(-c2nc3cc(C(F)(F)F)ccc3s2)cc1`, `Clc1ccc(C2SCc3nc4ccccc4n32)cc1` (stereo not drawn) is higher in TGI: 28.7 µM for the first, > 100 µM for the second.

`CC(=O)NC1C(OCc2ccccc2)OC(CO)C(O)C1OC(C)C(=O)NC(C(=O)NC(CCC(=O)NCCCNc1ccc([N+](=O)[O-])c2[nH]c3ccccc3c(=O)c12)C(N)=O)C(C)C` (stereo not drawn) and `CCC[N+](C)(C)CCCNC(=O)c1c(O)c2ccccc2[nH]c1=O` cannot be ordered by TGI: > 100 µM for the first, > 100 µM for the second.

`O=C1c2ccccc2C(=O)N1CC#CCO` and `N#CCCN(CCCCN(CCC#N)C(=O)Nc1ccccc1)C(=O)Nc1ccccc1` cannot be ordered by TGI: > 100 µM for the first, > 100 µM for the second.

Compared with `CN1CCN(Cc2ccc(NC(=O)c3cncc(C#Cc4ccc(N)nc4)c3)cc2C(F)(F)F)CC1`, `OC(c1cc(C(F)(F)F)nc2c(Cl)cc(Cl)cc12)C1CCCCN1` (stereo not drawn) is higher in TGI: 8.95 µM for the first, > 52.2 µM for the second.

First: COc1cc2c(cc1OC)C(Cl)C(c1ccc(Br)cc1)=C2Cl (stereo not drawn)
Second: COc1cc2c3c(n(C)c(=O)c2cc1OC)-c1cc2c(cc1/C3=C\CCCCl)OCO2
The TGI of the first is lower: 31.9 µM for the first, > 100 µM for the second.

Going from `COc1ccc(C(=O)/C=C/c2ccc(OCc3cccc(C(F)(F)F)c3)c(OC)c2)cc1OC` to `COc1cc2c(cc1OCC(=O)Nc1ccc(Cl)cc1C(=O)c1ccccc1Cl)N=CC1CCCN1C2=O` (stereo not drawn), the GI50 falls from 65.2 µM to 12.9 µM (5.1-fold).

Compared with `O=C(Nc1cccc([N+](=O)[O-])c1)c1cccc(C(=O)Nc2cccc([N+](=O)[O-])c2)c1`, `CN1CCN(Cc2ccc(NC(=O)c3cncc(C#Cc4ccc(N)nc4)c3)cc2C(F)(F)F)CC1` is 61-fold lower in GI50: 99.1 µM for the first, 1.62 µM for the second.

For `C[C@@H]1CC[C@@H]2[C@@H]1[C@H](OC(=O)/C=C/C1CCCCC1)[C@]1(C3CCCCC3)C[C@@H](OC(=O)CO)[C@@]2(C)O1`, the GI50 was 15.6 µM.

— PubChem BioAssay (NCI)
